The chains are these.
T1: RBFOX1 RRM RbFoxmut (Fox-RRM*) (Homo sapiens, UniProt Q9NWB1 109-208, R118D;E147R;N151S;E152T)
T1 sequence: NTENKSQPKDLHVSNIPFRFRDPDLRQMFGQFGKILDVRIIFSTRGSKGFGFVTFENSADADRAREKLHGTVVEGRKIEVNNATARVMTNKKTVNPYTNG

B1: CCCCAAA (DNA:RNA)
RNA: GGGAGACCGGAAUUCAGAUUGUCCCCCCAAAUUAAAUCCCGUCGUAGCCACCA
DNA 1: CAATCTGAATTCCGGTCTCCC
DNA 2: TGGTGGCTACGACGGGATT
B2: GGAGAGG (DNA:RNA)
RNA: B1 RNA with C25G, C26G, C27A, C28G, A30G, A31G
DNA 1: CAATCTGAATTCCGGTCTCCC
DNA 2: TGGTGGCTACGACGGGATT
B3: UUUCAAU (DNA:RNA)
RNA: B1 RNA with C25U, C26U, C27U, A31U
DNA 1: CAATCTGAATTCCGGTCTCCC
DNA 2: TGGTGGCTACGACGGGATT
B4: AUUUAGC (DNA:RNA)
RNA: B1 RNA with C25A, C26U, C27U, C28U, A30G, A31C
DNA 1: CAATCTGAATTCCGGTCTCCC
DNA 2: TGGTGGCTACGACGGGATT
B5: GGGCAAA (DNA:RNA)
RNA: B1 RNA with C25G, C26G, C27G
DNA 1: CAATCTGAATTCCGGTCTCCC
DNA 2: TGGTGGCTACGACGGGATT
B6: GCGAACU (DNA:RNA)
RNA: B1 RNA with C25G, C27G, C28A, A30C, A31U
DNA 1: CAATCTGAATTCCGGTCTCCC
DNA 2: TGGTGGCTACGACGGGATT
B7: CAAAGAA (DNA:RNA)
RNA: B1 RNA with C26A, C27A, C28A, A29G
DNA 1: CAATCTGAATTCCGGTCTCCC
DNA 2: TGGTGGCTACGACGGGATT
B8: AACUGUU (DNA:RNA)
RNA: B1 RNA with C25A, C26A, C28U, A29G, A30U, A31U
DNA 1: CAATCTGAATTCCGGTCTCCC
DNA 2: TGGTGGCTACGACGGGATT
B9: ACUAGGG (DNA:RNA)
RNA: B1 RNA with C25A, C27U, C28A, A29G, A30G, A31G
DNA 1: CAATCTGAATTCCGGTCTCCC
DNA 2: TGGTGGCTACGACGGGATT
B10: GCCCCUG (DNA:RNA)
RNA: B1 RNA with C25G, A29C, A30U, A31G
DNA 1: CAATCTGAATTCCGGTCTCCC
DNA 2: TGGTGGCTACGACGGGATT
B11: AGUAUAG (DNA:RNA)
RNA: B1 RNA with C25A, C26G, C27U, C28A, A29U, A31G
DNA 1: CAATCTGAATTCCGGTCTCCC
DNA 2: TGGTGGCTACGACGGGATT
B12: UAAGGAC (DNA:RNA)
RNA: B1 RNA with C25U, C26A, C27A, C28G, A29G, A31C
DNA 1: CAATCTGAATTCCGGTCTCCC
DNA 2: TGGTGGCTACGACGGGATT
B13: CGUCACG (DNA:RNA)
RNA: B1 RNA with C26G, C27U, A30C, A31G
DNA 1: CAATCTGAATTCCGGTCTCCC
DNA 2: TGGTGGCTACGACGGGATT
B14: CCCCCAU (DNA:RNA)
RNA: B1 RNA with A29C, A31U
DNA 1: CAATCTGAATTCCGGTCTCCC
DNA 2: TGGTGGCTACGACGGGATT
B15: CAUAAUA (DNA:RNA)
RNA: B1 RNA with C26A, C27U, C28A, A30U
DNA 1: CAATCTGAATTCCGGTCTCCC
DNA 2: TGGTGGCTACGACGGGATT
B16: GCCCGAG (DNA:RNA)
RNA: B1 RNA with C25G, A29G, A31G
DNA 1: CAATCTGAATTCCGGTCTCCC
DNA 2: TGGTGGCTACGACGGGATT
B17: UAGGGGC (DNA:RNA)
RNA: GGGAGACCGGAAUUCAGAUUGUCCUAGGGGCUUAAAUCCCGUCGUAGCCACCA
DNA 1: CAATCTGAATTCCGGTCTCCC
DNA 2: TGGTGGCTACGACGGGATT
B18: CAGGCUU (DNA:RNA)
RNA: B17 RNA with U25C, G29C, G30U, C31U
DNA 1: CAATCTGAATTCCGGTCTCCC
DNA 2: TGGTGGCTACGACGGGATT
B19: AUAAUUA (DNA:RNA)
RNA: B1 RNA with C25A, C26U, C27A, C28A, A29U, A30U
DNA 1: CAATCTGAATTCCGGTCTCCC
DNA 2: TGGTGGCTACGACGGGATT
B20: ACAAGUU (DNA:RNA)
RNA: B1 RNA with C25A, C27A, C28A, A29G, A30U, A31U
DNA 1: CAATCTGAATTCCGGTCTCCC
DNA 2: TGGTGGCTACGACGGGATT

Substitutions are numbered along the chain they refer to; changes in the protein carry UniProt numbers. The list shows a part of the results.

The target of this experiment is T1, RBFOX1 RRM RbFoxmut (Fox-RRM*). Kind of experiment: EMSA; HiTS-Eq, 1 nM pool, 10 min; buffer printed only for the single-RNA assays: 10 mM Tris pH 7.5, 150 mM NaCl, 3.4 mM EDTA, 0.001% NP-40, 30 C. Particulars: tags: His6 N-terminal (pET28a); label: 5' 32P. The essentials:
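These values rest on relative association constants, computed from read-count changes of each RNA species versus the control reaction and normalised to the cognate motif. Reads came from free RNA recovered by 8% native PAGE after purified RbFox RRM (wild type or mutant) at increasing concentrations was equilibrated for 10 min in 50 µL with 1 nM of a 5′-radiolabelled pool with 7 randomized nucleotides and DNA-annealed flanks.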
In general terms: In EMSA bound probe runs differently from free probe, usually more slowly.
Consider B1, for which the binding signal is 0.0725 KA relative to UGCAUGU.
Regarding B2, the binding signal is 0.0582 KA relative to UGCAUGU.
As for B3, the binding signal was 0.0446 KA relative to UGCAUGU.
In the case of B4, the binding signal is 0.134 KA relative to UGCAUGU.
To B5 belongs 0.0833 KA relative to UGCAUGU.
On to B6, for which the binding signal is 0.0629 KA relative to UGCAUGU.
B7: the binding signal was 0.0909 KA relative to UGCAUGU.
Regarding B8, the binding signal is 0.097 KA relative to UGCAUGU.
On to B9, for which the binding signal was 0.0967 KA relative to UGCAUGU.
Regarding B10, the binding signal was 0.0977 KA relative to UGCAUGU.
With B11 the figure was 0.112 KA relative to UGCAUGU; with B12, 0.0756 KA relative to UGCAUGU; with B13, 0.0954 KA relative to UGCAUGU.
Regarding B14, the binding signal is 0.0698 KA relative to UGCAUGU.
Turning to B15, the binding signal was 0.122 KA relative to UGCAUGU.
With B16 the figure was 0.101 KA relative to UGCAUGU.
Turning to B17, the binding signal was 0.0842 KA relative to UGCAUGU.
Take B18: the binding signal is 0.075 KA relative to UGCAUGU.
As for B19, the binding signal is 0.111 KA relative to UGCAUGU.
For B20, the binding signal was 0.0963 KA relative to UGCAUGU.

The record behind these values is publication PMC9911399, “Two distinct binding modes provide the RNA-binding protein RbFox with extraordinary sequence specificity”.
